Source: PubChem BioAssay AID686978 (National Center for Advancing Translational Sciences (NCATS), 2013)
Out of some 420,000 compounds screened, about 64,000 (15%) were called active. The inconclusive results got no clear call from the source; some entries with a clear call stand among them for comparison. Calls follow the shape of the dose curve; as a rule, active = well fitted inhibition curve with a large enough effect; inconclusive = small, poorly fitted or top-dose-only effect; inactive = flat fitted curve, though single readings scatter. Potencies of inconclusive entries are left out as doubtful fits.

Experiment: qHTS for Inhibitors of human tyrosyl-DNA phosphodiesterase 1 (TDP1): qHTS in cells in absence of CPT; also: nearly all actives have a fitted effect of over 55% in size
Conditions: DT40 Tdp1-/- hTDP1 cells, no CPT, ATP luminescence, 48 h; activity change, negative = growth inhibition: at 46.2 µM (top of the series) unless noted
Outline: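 Growth kinetics read by CellTiter-Glo luminescence after ≥48 hr at 37 °C. Cells: DT40 Tdp1-/- stably carrying human TDP1, 400 per well, compound exposure in the absence of CPT (DMSO vehicle).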
% is scaled to controls: 0 for no effect and ±100 for the full control effect; potency is read from the fitted curve at half-maximal effect; tags tell the direction and shape of the fitted curve.

Compound | Potency | activity change, negative = growth inhibition
COc1cc(C(=O)Nc2ccc3nc4n(c(=O)c3c2)CCCC4)ccc1Br | inconclusive [inhibitor, single point] | –
Cc1ccnc(SCC(=O)N2CCCc3ccccc32)n1 | – | inactive: 0.884%
O=C(O)c1cccc2c1C(=O)N(C1CCCC1)C2 | inconclusive [inhibitor, partial curve, poor fit] | –
O=C(NNC(=O)c1ccccc1OCc1ccc(F)cc1)c1ccccc1O | active: 5.17 µM | –
Cc1ccc(O)c(/C=N/NC(=O)CN2CCCC2)c1 | inconclusive [inhibitor, single point] | –
CN(CC(=O)Nc1ccc(Cl)cc1)C(=O)CNC(=O)c1ccc(Br)o1 | – | inactive: 2.26%
C#CCNC(=O)C[C@@H]1C[C@@]2(C(=O)OC)CCCCC=C2N(CCCCCCCC)C1=O | active: 23.1 µM | –
CSc1sc(C(=O)NCC2CC2)c(-c2cccs2)c1C#N | inconclusive [inhibitor, single point] | –
O=C(C1=C[C@H](c2csc3ccccc23)C[C@H](OCc2ccc(CO)cc2)O1)N1CCN(Cc2ccc3c(c2)OCO3)CC1 | inconclusive [inhibitor, single point] | –
CC1CCC(NC(=O)C2c3ccccc3C(=O)N2CCCN2CCOCC2)CC1 (configuration not stated) | – | inactive: -2.65%
C=C1C(=C/C=C2\CCC[C@]3(C)[C@@H]([C@H](C)/C=C/[C@@H](O)C4CC4)CC[C@@H]23)C[C@@H](O)C[C@@H]1O | active: 26.6 µM | –
N=c1c2c3c(sc2ncn1CCCN1CCOCC1)CCCCC3 | inconclusive [inhibitor, partial curve] | –
Cc1ccccc1CN1CCC(C(=O)Nc2ccc(Oc3cccnc3)cc2)CC1 | inconclusive [inhibitor, partial curve] | –
Cc1ccc(CN2C(=O)CSc3ccc(C(=O)NC4CC4)cc32)cc1 | inconclusive [inhibitor, single point] | –
Cc1ccccc1CSc1nc(-c2cccc(F)c2)nc2c1Cc1c(CO)cnc(C)c1O2 | – | inactive: -9.98%
CC(C)CN1CC2(CCN(S(=O)(=O)c3ccccc3)CC2)C1 | – | inactive: -3.07%
CCOC(=O)c1c(Nc2ccccc2OCCOC)n[nH]c1C | – | inactive: -19.5%
Cc1cccc(-c2cnc(C(O)Cc3ccccc3)[nH]2)c1 (configuration not stated) | inconclusive [inhibitor, single point] | –
CCNC(=O)C1(C)CCCN1C(=O)c1cnc2ccccc2n1 (configuration not stated) | – | inactive: 7.89%
CN1CCC(N(C)C(=O)/C=C/c2cn(-c3ccccc3)nc2-c2cccs2)CC1 | active: 23.1 µM | –
C=CCN(CC=C)Cc1cc(=O)oc2cc(C)ccc12 | inconclusive [inhibitor, single point] | –
CC(=O)NCC(=O)NCC1Cc2cc(C)cc(-c3ccccn3)c2O1 (configuration not stated) | – | inactive: 2.11%
COc1ccc(N(CC(=O)NC2CCCCC2)C(=O)c2ccc(C)s2)c(OC)c1 | inconclusive [inhibitor, single point] | –
CC(=O)c1c(C)[nH]c(C(=O)OCn2nnc3ccccc3c2=O)c1C | active: 16.4 µM | –

Compound | Potency | activity change, negative = growth inhibition
Cn1c(NCCN2CCOCC2)nc2c1c(=O)n(Cc1cccc(Cl)c1)c(=O)n2C | inconclusive [inhibitor, partial curve] | –
COCC(=O)OCn1nnc2ccccc2c1=O | inconclusive [inhibitor, single point] | –
CN(C)CCn1c(NCc2ccc3c(c2)OCO3)nc2ccccc21 | – | inconclusive: -33.2% [inhibitor]
Fc1ccc2nc(Nc3ccccc3)sc2c1 | inconclusive [inhibitor, single point] | –
CCCc1cc(=O)oc2c(C)c(OCC(=O)NC3CCN(Cc4ccccc4)CC3)ccc12 | inconclusive [inhibitor, single point] | –
O=c1cnc2cnc(N3CCOCC3)nc2n1Cc1ccc(F)cc1 | inconclusive [inhibitor, single point] | –
Cc1cccc(NC(=O)c2nc[nH]c2C(=O)N[C@@H](CC(C)C)C(=O)OC(C)(C)C)c1 | inconclusive [inhibitor, single point] | –
CCOC(=O)C1(C(=O)OCC)C(C(=O)c2ccccc2)C1c1ccccc1 (configuration not stated) | inconclusive [inhibitor, single point] | –
CCOc1ccc(S(=O)(=O)c2c[nH]c3ccc(C)cc3c2=O)cc1 | – | inactive: -5.3%
CC(C)C(=O)NC(Nc1ccccc1F)C(Cl)(Cl)Cl (configuration not stated) | inconclusive [inhibitor, single point] | –
CN(C)C(=S)Nc1cccc(F)c1 | – | inactive: -14.6%
CCCN(C(=O)COC(=O)COc1c(C)cccc1C)c1c(N)n(Cc2ccccc2)c(=O)[nH]c1=O | – | inactive: -8.35%
O=C(C1=C[C@@H](c2csc3ccccc23)C[C@@H](OCCCCO)O1)N1CCN(Cc2ccc3c(c2)OCO3)CC1 | inconclusive [inhibitor, single point] | –
COC(=O)C1CCN(C(=O)COC(=O)c2oc3ccccc3c2C)CC1 | inconclusive [inhibitor, single point] | –
Cc1cccc(C)c1Nc1c(-c2ccc(N3CCOCC3)cc2)nc2ncccn12 | active: 20.6 µM | –
CC(C)c1ccc(OC(=O)c2ccc3c(=O)n4c(nc3c2)CCC4)cc1 | inconclusive [inhibitor, partial curve] | –
CC(=O)c1ccc(NS(=O)(=O)c2ccc(C(C)(C)C)cc2)cc1 | inconclusive [inhibitor, single point] | –
O=C(Cc1csc(NC(=O)Nc2cccc(Cl)c2)n1)NC1CCCC1 | inconclusive [inhibitor, single point] | –
C=CCc1ccccc1Oc1cc(OC)nc(N)n1 | inconclusive [inhibitor, single point] | –
COc1ccc(NC(=O)COc2nsnc2N2CCCCC2)cc1 | active: 18.4 µM | –
CCc1ccc(C2=NN(S(C)(=O)=O)C(c3cccs3)C2)cc1 (configuration not stated) | inconclusive [inhibitor, partial curve] | –
CCc1cccc2c(C#N)cn(CC(=O)NCCOC)c12 | – | inactive: -9.17%
CC(C)[C@H](NC(=O)[C@H]1N2C(=O)c3ccccc3C2SC1(C)C)C(=O)NCc1ccco1 (some centres not stated) | – | inactive: 5.4%
Cc1cc(C)n(-c2ccc(NC(=O)C3CCCCN3C(=O)c3sccc3C)cc2)n1 (configuration not stated) | inconclusive [inhibitor, single point] | –

Compound | Potency | activity change, negative = growth inhibition
CSc1nsc(SC)c1NC(=O)OCCc1ccccn1 | – | inactive: 2.42%
COc1ccc(N2CC(O)=C(c3n(C)c4ccccc4[n+]3C)C2=N)cc1 | inconclusive [inhibitor, single point] | –
Cc1ccc(CSCCC(=O)N2CCN(c3ccc(F)cc3)CC2)cc1 | – | inactive: -21.4%
CCc1ccc(S(=O)(=O)NCc2csc(C)n2)s1 | inconclusive [inhibitor, single point] | –
O=C(NCc1ccccc1)C(c1ccc(O)cc1)N(C(=O)c1cnccn1)c1ccccc1 (configuration not stated) | inconclusive [inhibitor, partial curve] | –
CNC(=O)c1c(NC(=O)c2cc(=O)c3cc(C)c(C)cc3o2)sc2c1CCCC2 | – | inactive: -4.6%
C=CCn1c(SCC(=O)Nc2ccccc2C)nc(O)cc1=O | – | inactive: 10.2%
Cc1ccc(N(C)C(=O)c2ccc(CNc3c(N4CCC(C)CC4)c(=O)c3=O)cc2)cc1 | inconclusive [inhibitor, single point] | –
CCCCNC(=O)CC1Nc2cc(C)c(C)cc2NC1=O (configuration not stated) | active: 5.17 µM | –
CCOc1ccc(NC(=O)Nc2ccc(Cc3ccncc3)cc2)cc1 | inconclusive [inhibitor, single point] | –
Nc1ccn([C@@H]2O[C@H](C(=O)N3CCCN(Cc4cccs4)CC3)[C@@H](O)[C@H]2O)c(=O)n1 | – | inactive: -0.0178%
CN(C)S(=O)(=O)c1ccc(C(=O)NCCSc2c(-c3ccc(Br)cc3)[nH]c3ccccc23)cc1 | active: 2.31 µM | –
OCC1OC(c2ccc(OCc3ccccc3)cc2OCc2ccccc2)C(O)C1O (configuration not stated) | active: 9.2 µM | –
S=C(NCCCN(Cc1ccc(Cl)cc1)c1ccc(Br)cn1)NCc1ccc2nc[nH]c2c1 | inconclusive [inhibitor, single point] | –
O=C(NNc1ccc([N+](=O)[O-])cc1)c1ccco1 | – | inactive: 18.5%
Cc1nn(-c2ccccc2)c2c1C1(C(=O)Nc3ccccc31)N1C(=N2)Sc2ccccc21 (configuration not stated) | inconclusive [inhibitor, single point] | –
O=C1N(c2ccccc2)C[C@@H]2C[C@@H](c3cccs3)N3CCC[C@@]123 | – | inactive: -28.2%
CNc1nnc(SCC(=O)c2cc(C)n(C3CC3)c2C)s1 | inconclusive [inhibitor, single point] | –
O=C(O)C1CCCN(CCC=C(c2ccccc2)c2ccccc2)C1 (configuration not stated) | inactive | –
CSc1ccccc1OCc1cc(C(=O)N2CCCC(C)C2)no1 (configuration not stated) | inconclusive [inhibitor, single point] | –
O=C(Cc1cccs1)NCCS(=O)(=O)N1CCN(c2cccc(Cl)c2)CC1 | inconclusive [inhibitor, single point] | –
Cc1nn(-c2ccccc2)c(C)c1C(=O)OCC(=O)Nc1ccc(C(N)=O)cc1 | inconclusive [inhibitor, single point] | –
Nc1c2c(=O)oc(-c3ccccc3)cc2nn1-c1ccccc1 | inconclusive [inhibitor, single point] | –
COc1cc(OC)cc(C(=O)Nc2ccc3nc4c(c(Nc5ccc(OC)c(OC)c5)c3c2)CCCC4)c1 | active: 23.1 µM | –
